Measurements from US20230002486A1 (SPARX THERAPEUTICS, published 2023).
Where a chain is given by its changes, count along the chain named.

How the values were obtained:
[1] = molecular target: claudin 18.2 (CLDN 18.2), recombinant protein (human); experiment: direct ELISA, coated recombinant CLDN 18.2 (FIG. 11B)
[2] = molecular target: T1, PD-L1 (programmed death-ligand 1), recombinant protein (human, UniProt Q9NZQ7 in part, limits assumed); experiment: direct ELISA, coated PD-L1
T1 construct: the other ELISAs print only 'PD-L1'; also called human PDL1; CD274
Text: (§1) ELISA assay was employed to determine the binding properties of the bispecific antibodies to their antigens. […] The wells were then reacted with goat anti human IgG antibody conjugated with horseradish peroxidase (HRP).

[3] = molecular target: claudin 18.2 (CLDN 18.2), recombinant protein (human); experiment: ELISA at pH6, coated CLDN 18.2 (FIG. 8A)
[4] = molecular target: T1, PD-L1 (programmed death-ligand 1), …; experiment: ELISA at pH3, coated PD-L1 (FIG. 8B)
[5] = molecular target: T2, CLDN 18.2 expressed on stably transfected cells (HEK293T-CLDN 18.2, MiaPaCa-CLDN 18.2) (human); experiment: In-Cell ELISA on fixed HEK293T cells over-expressing CLDN 18.2
[6] = molecular target: T1, PD-L1 (programmed death-ligand 1), …; experiment: ELISA at pH4.5, coated PD-L1 (FIG. 8B)
[7] = molecular target: claudin 18.2 (CLDN 18.2), recombinant protein (human); experiment: direct ELISA, coated recombinant CLDN 18.2
Text: as §1

[8] = molecular target: T1, PD-L1 (programmed death-ligand 1), …; experiment: ELISA at pH4, coated PD-L1 (FIG. 8B)
[9] = molecular target: claudin 18.2 (CLDN 18.2), recombinant protein (human); experiment: ELISA at pH3, coated CLDN 18.2 (FIG. 8A)
[10] = molecular target: T2, CLDN 18.2 expressed on stably …; experiment: cell-based or functional assay
[11] = molecular target: T3, CLDN 18.2 fused with GFP at its C-terminal, on MCF7 cells (MCF7-CLDN 18.2) (human); experiment: cell-based or functional assay
[12] = molecular target: T1, PD-L1 (programmed death-ligand 1), …; experiment: direct ELISA, coated PD-L1 (FIG. 7B)
[13] = molecular target: T1, PD-L1 (programmed death-ligand 1), …; experiment: ELISA at pH6, coated PD-L1 (FIG. 8B)
[14] = molecular target: claudin 18.2 (CLDN 18.2), recombinant protein (human); experiment: direct ELISA, coated recombinant CLDN 18.2 (FIG. 7A)
[15] = molecular target: claudin 18.2 (CLDN 18.2), recombinant protein (human); experiment: ELISA at pH4, coated CLDN 18.2 (FIG. 8A)
[16] = molecular target: T2, CLDN 18.2 expressed on stably …; experiment: cell-based or functional assay; remark: listed apart in the source
[17] = molecular target: T3, CLDN 18.2 fused with GFP at its …; experiment: cell-based or functional assay; remark: listed apart in the source
[18] = molecular target: T3, CLDN 18.2 fused with GFP at its …; experiment: flow cytometry on living MCF7 cells stably expressing CLDN 18.2, DyLight 650 anti-IgG
[19] = molecular target: claudin 18.2 (CLDN 18.2), recombinant protein (human); experiment: ELISA at pH4.5, coated CLDN 18.2 (FIG. 8A)
[20] = molecular target: T1, PD-L1 (programmed death-ligand 1), …; experiment: direct ELISA, coated PD-L1 (FIG. 9B)
[21] = molecular target: claudin 18.2 (CLDN 18.2), recombinant protein (human); experiment: direct ELISA, coated recombinant CLDN 18.2 (FIG. 9A)
[22] = molecular target: claudin 18.2 (CLDN 18.2), recombinant protein (human); experiment: direct ELISA, coated recombinant CLDN 18.2 (FIG. 10A)
[23] = molecular target: T1, PD-L1 (programmed death-ligand 1), …; experiment: direct ELISA, coated PD-L1 (FIG. 10B)

T1 sequence (Q9NZQ7 19-238 limits assumed): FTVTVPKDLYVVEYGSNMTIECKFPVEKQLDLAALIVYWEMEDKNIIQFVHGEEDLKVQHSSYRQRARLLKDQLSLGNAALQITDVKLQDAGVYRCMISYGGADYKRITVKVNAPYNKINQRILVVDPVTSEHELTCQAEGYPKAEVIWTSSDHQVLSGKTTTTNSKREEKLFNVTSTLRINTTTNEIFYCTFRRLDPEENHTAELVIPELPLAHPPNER

B1: scDb01, single-chain anti-CLDN 18.2/anti-PD-L1 bispecific antibody (bispecific antibody)
chain: DIQMTQSPSSLSASVGDRVTITCKSSQSLLNSGNQKSYLTWYQQKPGKAPKLLIYWASTLESGVPSRFSGSGSGTDYTLTISSLQPEDFATYYCQNAYFFPFTFGQGTKVEIKSGGGGEVQLVESGGGLVQPGGSLRLSCAASGFTFSRYWMSWVRQAPGKGLEWVANIKQDGSEKYYVDSVKGRFTISRDNAKNSLYLQMNSLRAEDTAVYYCAREGGWFGELAFDYWGQGTLVTVSSGGGGSGGGGSGGGGSEIVLTQSPGTLSLSPGERATLSCRASQRVSSSYLAWYQQKPGQAPRLLIYDASSRATGIPDRFSGSGSGTDFTLTISRLEPEDFAVYYCQQYGSLPWTFGQGTKVEIKSGGGGEVQLVESGGGLVQPGGSLRLSCAVSGYTFSMNWVRQAPGKGLEWVAWINMYTGEPTYADDFKGRFTISRDDSKNTLYLQMNSLRAEDTAVYYCARLYNGNSLDYWGQGTLVTVSSGGGGS[human IgG1 Fc with C220S (EU numbers) not printed]
notes: 5C9ob VL-L1-durvalumab VH-L2-durvalumab VL-L3-5C9ob VH-L4-Fc (CH2CH3) on one polypeptide; also called ScDBO1; scD01
[1]
  Kd: 0.279 nM
[2]
  Kd: 0.59 nM
[3]
  Kd: 0.158 nM
[4]
  Kd: 0.488 nM
[5]
  Bmax: 1.25 nM
  Kd: 0.582 nM
[6]
  Kd: 0.335 nM
[7]
  Kd: 0.26 nM
[8]
  Kd: 0.343 nM
[9]
  Kd: 0.252 nM
[10]
  ADCC Reporter in HEK293-CLDN18.2, EC50: 0.004 nM
  CDC in HEK293-CLDN 18.2, EC50: 1.29 nM
[11]
  ADCC Reporter in MCF7-CLDN 18.2, EC50: 0.003 nM
[12]
  Kd: 0.585 nM
[13]
  Kd: 0.352 nM
[14]
  Kd: 0.263 nM
[15]
  Kd: 0.176 nM
[16]
  ADCC reporter assay, EC50 (FIG. 18): 0.0156 nM
  ADCC reporter assay, EC50 (FIG. 23A): 0.0042 nM
[17]
  ADCC reporter assay, EC50 (FIG. 24A): 0.00203 nM
[18]
  EC50 (read off the curve): ~3 nM
[19]
  Kd: 0.16 nM

B2: scDb02, single-chain bispecific antibody with VH44-VL100 disulfides (bispecific antibody)
chain: B1 chain with Q106C, G162C, Q355C, G408C
notes: Single polypeptide with Fc; also called ScDb2
[2]
  Kd: 0.4 nM
[20]
  Kd: 0.4 nM
[7]
  Kd: 0.21 nM
[21]
  Kd: 0.208 nM

B3: scDb04, single-chain bispecific antibody with a VH42-VH3 disulfide (bispecific antibody)
chain: B1 chain with Q121C, G406C
notes: Single polypeptide with Fc; also called ScDb4
[2]
  Kd: 0.51 nM
[20]
  Kd: 0.512 nM
[7]
  Kd: 0.25 nM
[21]
  Kd: 0.252 nM

B4: scDb06, single-chain bispecific antibody with VH44-VL100 disulfides and longer L2 (bispecific antibody)
chain: DIQMTQSPSSLSASVGDRVTITCKSSQSLLNSGNQKSYLTWYQQKPGKAPKLLIYWASTLESGVPSRFSGSGSGTDYTLTISSLQPEDFATYYCQNAYFFPFTFGCGTKVEIKSGGGGEVQLVESGGGLVQPGGSLRLSCAASGFTFSRYWMSWVRQAPGKCLEWVANIKQDGSEKYYVDSVKGRFTISRDNAKNSLYLQMNSLRAEDTAVYYCAREGGWFGELAFDYWGQGTLVTVSSGGGGSGGGGSGGGGSGGGGSEIVLTQSPGTLSLSPGERATLSCRASQRVSSSYLAWYQQKPGQAPRLLIYDASSRATGIPDRFSGSGSGTDFTLTISRLEPEDFAVYYCQQYGSLPWTFGCGTKVEIKSGGGGEVQLVESGGGLVQPGGSLRLSCAVSGYTFSMNWVRQAPGKCLEWVAWINMYTGEPTYADDFKGRFTISRDDSKNTLYLQMNSLRAEDTAVYYCARLYNGNSLDYWGQGTLVTVSSGGGGS[human IgG1 Fc with C220S (EU numbers) not printed]
notes: Single polypeptide with Fc
[2]
  Kd: 0.35 nM
[7]
  Kd: 0.21 nM
[22]
  Kd: 0.21 nM
[23]
  Kd: 0.352 nM
